Experimental data: paper PMC12090809 (Journal of Virology, 2025)
Read-outs that look alike come from different tables or passages of the source.

How the values were obtained:
[1] = tested on: SHIV AD8-EO; assay: TZM-bl neutralization of SHIV AD8-EO by plasma from BNM-III-170-treated RMs; conditions: 2 × 36 mg/kg, 1 day interval treatment cycle; including plasma 24 h after administration
[2] = tested on: HIV-1; conditions: mouse, in vivo; cited from earlier work
[3] = Plasma pharmacokinetics of BNM-III-170 in SHIV AD8-EO-infected RMs (HPLC-MS/MS); type: in vivo, Macaca mulatta; conditions: first dose of each treatment cycle
Procedure: Plasma concentrations of BNM-III-170 in SHIV-infected animals were measured via liquid chromatography and mass spectrometry at several timepoints following each BNM-III-170 dose for all treatment cycles.

[4] = in vivo
[5] = tested on: ADCC; conditions: cited from earlier work
[6] = tested on: CEM.NKr-CCR5-sLTR-Luc cells infected with SHIV AD8-EO; type: cell-based
[7] = tested on: SHIV AD8-EO; assay: Viral infectivity / neutralization assay in TZM-bl cells with SHIV variants; conditions: 2 µM BNM-III-170 (Fig. 2B)
[8] = tested on: target cells infected with SHIV AD8-EO; type: cell-based

CNCc1ccc2c(c1)C[C@H](CN=C(N)N)[C@H]2NC(=O)C(=O)Nc1ccc(Cl)c(F)c1.O=C(O)C(F)(F)F.O=C(O)C(F)(F)F [BNM-III-170]
neutralization of SHIV AD8-EO by RM plasma collected after BNM-III-170 administration [1]: SHIV AD8-EO was neutralized by RM plasma | HIV-1 DNA levels in CD4+ T cells from peripheral blood, spleen, mucosa, and liver [2]: reduce HIV-1 DNA levels in CD4+ T cells | sustained plasma concentrations during the treatment cycle [2]: above 200 ng/mL | time to viral rebound [2]: significant delay in time to viral rebound | time of peak plasma level [3]: ≤ 1.5 h | max plasma concentrations (Cmax) [4]: 1900 to 15300 ng/mL | plasma half-life [4]: 3 to 6 h | time of peak plasma level [4]: 30 to 120 min | time plasma levels maintained above estimated effective concentration for ADCC of 0.675 µg/mL [4]: 8 to 12 h | estimated effective concentration for ADCC [5]: 0.675 µg/mL | exposure of 17b mAb epitope on infected cells [6]: induce conformational changes that exposed the 17b mAb epitope | sensitization to neutralization by non-neutralizing anti-V3 CD4i 19b antibody [7]: sensitize SHIV AD8-EO to neutralization | sensitization of infected target cells to ADCC in the presence of plasma from PWH [8]: sensitize target cells infected with SHIV AD8-EO to ADCC
